Some of the results follow. Viral Rep nickase domains cut single-stranded DNA in vitro (3 µM enzyme, 1 h, 37 °C); shown is the middle of each 90-letter strand. The score is log2 (uncut reads / reads without enzyme); more negative means more cut, near 0 not cut, and no call is made. Shares of all reads are compared; uncut strands gain when others are lost, and binding without cutting may add a little.

This test relates to T1, Rep nickase domain of Muscovy duck circovirus.
T1 sequence (protein, residues 1-111, tag omitted): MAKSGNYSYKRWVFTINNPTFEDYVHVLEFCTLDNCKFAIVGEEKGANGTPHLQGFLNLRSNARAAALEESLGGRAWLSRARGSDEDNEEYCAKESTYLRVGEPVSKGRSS
As to the kind of experiment: uncleaved DNA left, log2 of reads against the no-enzyme library (log2 ratio); higher = less cleavage (more negative = more Rep cleavage of the k-mer); sequences stand for … in CTCGTCCG…ACCGGAGA
How it is done:
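A pool of 90-nt single-stranded DNAs with seven random bases just before the constant AC of the nick site (name = the seven bases) was cut by 3 µM recombinant His6-SUMO-tagged Rep nickase domain (300 nM DNA, 50 mM HEPES pH 8.0, 50 mM NaCl, 1 mM MnCl2, 1 h, 37 °C, three replicates). Uncut DNA was amplified and sequenced.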
Consider CACCCTT, for which the “uncleaved DNA left (log2)” value was -0.0231.

As to CTTAGGC, the “uncleaved DNA left (log2)” value came out at 0.0265.

Take TGCTTCT: the “uncleaved DNA left (log2)” value is -1.42.

In the case of GGAGTAC, the “uncleaved DNA left (log2)” value is -0.065.

In the case of GGGATCG, the “uncleaved DNA left (log2)” value was found to be 0.04.

TTCTGCT: the “uncleaved DNA left (log2)” value was -1.51.

With GATCATT, the “uncleaved DNA left (log2)” value was 0.0349.

As to CTGCCCT, the “uncleaved DNA left (log2)” value was found to be 0.0516.

For the sequence CGACCGA, the “uncleaved DNA left (log2)” value is 0.00481.

Regarding TGGACAC, the “uncleaved DNA left (log2)” value was -0.0119.

Consider ACCTGAG, for which the “uncleaved DNA left (log2)” value was 0.238.

Consider TAGTGTC, for which the “uncleaved DNA left (log2)” value was 0.121.

As to ACTTATT, the “uncleaved DNA left (log2)” value is -3.63.

In the case of TGTGGTG, the “uncleaved DNA left (log2)” value was -0.0205.

As to CTGAGAC, the “uncleaved DNA left (log2)” value is -0.133.

As to GGTTGGA, the “uncleaved DNA left (log2)” value came out at 0.106.

Consider CCCCTCT, for which the “uncleaved DNA left (log2)” value is -0.107.

Regarding AATCCGG, the “uncleaved DNA left (log2)” value is -0.133.

Turning to AGGACGG, the “uncleaved DNA left (log2)” value is -0.129.

As for TACGAAT, the “uncleaved DNA left (log2)” value was determined as 0.0373.

Turning to CTTCATG, the “uncleaved DNA left (log2)” value came out at 0.0626.

As to ACCATCA, the “uncleaved DNA left (log2)” value is 0.121.

With GACCCCT, the “uncleaved DNA left (log2)” value was 0.0439.

AACATCT: the “uncleaved DNA left (log2)” value was -0.0572.

On to GCGGATC, for which the “uncleaved DNA left (log2)” value turned out to be 0.136.

As to CTATACA, the “uncleaved DNA left (log2)” value was -0.189.

Regarding ATAAGTG, the “uncleaved DNA left (log2)” value came to 0.065.

With CTTAACA, the “uncleaved DNA left (log2)” value was 0.037.

Regarding CAAAACC, the “uncleaved DNA left (log2)” value was -0.0119.

As to GAAATTA, the “uncleaved DNA left (log2)” value was found to be 0.0288.

On to GGGGGCT, for which the “uncleaved DNA left (log2)” value turned out to be 0.116.

CTTAATA: the “uncleaved DNA left (log2)” value was 0.000554.

Take AAATGGC: the “uncleaved DNA left (log2)” value stood at 0.118.

For the sequence TTCACAA, the “uncleaved DNA left (log2)” value was 0.107.

Take TCCGCGG: the “uncleaved DNA left (log2)” value amounted to 0.0414.

For GATAAAC, the “uncleaved DNA left (log2)” value came to 0.0151.

Regarding TAACCTT, the “uncleaved DNA left (log2)” value is -0.201.

As to TTGCGAG, the “uncleaved DNA left (log2)” value is 0.0565.

Turning to CTGTGGT, the “uncleaved DNA left (log2)” value is -0.0425.

With GGTGCAG, the “uncleaved DNA left (log2)” value is -0.0997.

These data come from the supplement of paper PMC7826260.
